{"source": "paper PMC4336329", "about": "(PLoS ONE, 2015)", "note": "Among all 310,000 compounds or so, about 2,200 (0.71%) showed an effect of 50% or more. The effect is printed as a negative number. Some of the results follow."}
{"molecular_target": "human ether-à-go-go-related gene (hERG) potassium channel (human, UniProt Q12809)", "sequence (Q12809 whole entry, looked up)": "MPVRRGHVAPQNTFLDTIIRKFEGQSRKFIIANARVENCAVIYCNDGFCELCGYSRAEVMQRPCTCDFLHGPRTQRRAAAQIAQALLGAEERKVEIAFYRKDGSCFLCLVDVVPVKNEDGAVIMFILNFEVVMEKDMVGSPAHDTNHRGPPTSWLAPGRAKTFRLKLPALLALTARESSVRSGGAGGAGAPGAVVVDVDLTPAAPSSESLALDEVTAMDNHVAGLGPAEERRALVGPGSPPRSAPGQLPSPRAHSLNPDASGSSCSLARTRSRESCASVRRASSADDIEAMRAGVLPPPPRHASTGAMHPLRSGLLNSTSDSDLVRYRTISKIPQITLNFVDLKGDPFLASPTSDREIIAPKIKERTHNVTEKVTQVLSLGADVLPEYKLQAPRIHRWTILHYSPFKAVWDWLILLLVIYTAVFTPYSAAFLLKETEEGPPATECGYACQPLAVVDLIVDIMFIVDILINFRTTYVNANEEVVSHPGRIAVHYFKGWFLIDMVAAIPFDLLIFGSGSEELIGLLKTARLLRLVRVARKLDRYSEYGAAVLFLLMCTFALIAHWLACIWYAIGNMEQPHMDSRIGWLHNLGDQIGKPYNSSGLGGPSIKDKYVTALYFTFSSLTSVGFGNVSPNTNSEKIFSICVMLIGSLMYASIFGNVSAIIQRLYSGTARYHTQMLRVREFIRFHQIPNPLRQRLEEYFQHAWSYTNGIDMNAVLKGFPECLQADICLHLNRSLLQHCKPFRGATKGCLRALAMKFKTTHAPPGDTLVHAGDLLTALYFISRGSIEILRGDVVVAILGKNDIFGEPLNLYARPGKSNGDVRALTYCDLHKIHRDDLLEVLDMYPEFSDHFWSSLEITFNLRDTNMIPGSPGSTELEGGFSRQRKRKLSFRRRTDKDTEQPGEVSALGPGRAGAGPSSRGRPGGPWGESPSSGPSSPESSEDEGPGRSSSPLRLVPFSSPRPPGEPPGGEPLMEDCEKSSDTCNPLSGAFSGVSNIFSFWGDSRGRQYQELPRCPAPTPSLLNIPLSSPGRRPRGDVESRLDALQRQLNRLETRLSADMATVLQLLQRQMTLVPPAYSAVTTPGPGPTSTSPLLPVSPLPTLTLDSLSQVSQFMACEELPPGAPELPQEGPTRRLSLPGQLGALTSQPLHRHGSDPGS", "assay": "primary screen, population patch clamp on CHO cells stably expressing hERG", "units": {"hERG current change (%, negative = inhibition) at 1uM": "%"}}
{"smiles": "Cn1c(=O)cc(OCCCC(=O)NCc2ccco2)c2ccccc21", "hERG current change (%, negative = inhibition) at 1uM": 4.22}
{"smiles": "CCOc1ccccc1NC(=O)c1ccccc1N(C)S(C)(=O)=O", "hERG current change (%, negative = inhibition) at 1uM": 11}
{"smiles": "Cc1ccc(CCC(=O)Nc2ccccc2F)s1", "hERG current change (%, negative = inhibition) at 1uM": 4.84}
{"smiles": "CC1CCC(N(CCCN)Cc2ccco2)CC1C", "note": "(stereo not drawn)", "hERG current change (%, negative = inhibition) at 1uM": 5.82}
{"smiles": "Cc1ccc2nc(-c3ccccc3)cc(C(=O)NCC(c3ccco3)N(C)C)c2c1", "note": "(stereo not drawn)", "hERG current change (%, negative = inhibition) at 1uM": 2.3}
{"smiles": "O=C(CSc1n[nH]c(-c2ccccn2)n1)Nc1ccccc1", "hERG current change (%, negative = inhibition) at 1uM": 8.04}
{"smiles": "CCc1c(C)nc2cc(-c3ccc(OC)c(OC)c3)nn2c1NCC1CC1", "hERG current change (%, negative = inhibition) at 1uM": 4.07}
{"smiles": "CC1CCCN(c2ccc(C(=O)NCc3cccs3)cn2)C1", "note": "(stereo not drawn)", "hERG current change (%, negative = inhibition) at 1uM": 6.2}
{"smiles": "Cc1cccc(CNCCc2c[nH]c3ccccc23)c1.O=C(O)C(=O)O", "hERG current change (%, negative = inhibition) at 1uM": 13.5}
{"smiles": "O=C(NCc1ccccn1)c1ccc(N2CCCC2=O)cc1", "hERG current change (%, negative = inhibition) at 1uM": 13.7}
{"smiles": "Cc1ccccc1-n1c(Cn2c(=O)sc3ccccc32)nnc1SCC(=O)Nc1nccs1", "hERG current change (%, negative = inhibition) at 1uM": 8.57}
{"smiles": "CC(=O)C1=C(C)OC(N)=C(C(=O)OC(C)C)C12C(=O)Nc1ccccc12", "note": "(stereo not drawn)", "hERG current change (%, negative = inhibition) at 1uM": -0.186}
{"smiles": "NC(=O)c1ccccc1NS(=O)(=O)c1cccs1", "hERG current change (%, negative = inhibition) at 1uM": 14.6}
{"smiles": "COc1ccc(CN=CC2=C(O)CC(C)(C)CC2=O)cc1", "hERG current change (%, negative = inhibition) at 1uM": 6.75}
{"smiles": "CCOc1ccc(CNCCc2ccc(S(N)(=O)=O)cc2)cc1.Cl", "hERG current change (%, negative = inhibition) at 1uM": -44.8}
{"smiles": "CC1CN(c2nc3ccccc3nc2SCC(=O)Nc2ccc(F)cc2)CC(C)O1", "note": "(stereo not drawn)", "hERG current change (%, negative = inhibition) at 1uM": 8.9}
{"smiles": "COCc1cc(=O)n2[nH]c(-c3ccc(C)cc3)cc2n1", "hERG current change (%, negative = inhibition) at 1uM": 8.16}
{"smiles": "CN1C[C@H](CO)C[C@@H]2c3cccc4[nH]cc(c34)C[C@H]21", "hERG current change (%, negative = inhibition) at 1uM": 6.89}
{"smiles": "Cc1cc(C)cc(N(CC(=O)NC2CCCCCC2)S(=O)(=O)c2c(C)[nH]c(=O)[nH]c2=O)c1", "hERG current change (%, negative = inhibition) at 1uM": 8.18}
{"smiles": "CCOC(=O)N1CCN(C(=O)Cn2nc(C)c3sc4ccccc4c3c2=O)CC1", "hERG current change (%, negative = inhibition) at 1uM": 8.38}
{"smiles": "CN1CCC(N(C)C(=O)COc2ccccc2Cl)CC1", "hERG current change (%, negative = inhibition) at 1uM": 6.85}
{"smiles": "O=C(Cn1cnc2c(oc3ccccc32)c1=O)c1ccccc1", "hERG current change (%, negative = inhibition) at 1uM": -4.22}
{"smiles": "COc1ccc(-c2csc(N(CCCN3CCOCC3)C(=O)c3ccco3)n2)cc1.Cl", "hERG current change (%, negative = inhibition) at 1uM": -2.59}
{"smiles": "Cc1nc(-c2ccccc2)sc1C(=O)CSc1ccc(F)cc1", "hERG current change (%, negative = inhibition) at 1uM": -0.54}
{"smiles": "COc1ccc(OC)c(NC(=O)c2ccc(OC3CSC3)cc2)c1", "hERG current change (%, negative = inhibition) at 1uM": -2.97}
{"smiles": "Cc1cc(C)n2c(SCC(=O)Nc3cc(C)on3)nnc2n1", "hERG current change (%, negative = inhibition) at 1uM": -5}
{"smiles": "COC(=O)c1cc(Br)c(N)cc1OC", "hERG current change (%, negative = inhibition) at 1uM": 12}
{"smiles": "Nc1cc(=O)[nH]c(SCC(=O)Nc2cc(S(=O)(=O)N3CCOCC3)ccc2Cl)n1", "hERG current change (%, negative = inhibition) at 1uM": -1.44}
{"smiles": "CCOC(=O)C=C1CCN(c2ncc(C(F)(F)F)cc2Cl)CC1", "hERG current change (%, negative = inhibition) at 1uM": 10.6}
{"smiles": "CCOc1ccc(NS(=O)(=O)c2cccc(C(=O)N(C)Cc3ccco3)c2)cc1", "hERG current change (%, negative = inhibition) at 1uM": -7.06}
{"smiles": "CCn1nc(C)c(/C=N/NC(=O)Cn2nnc(N)n2)c1C", "hERG current change (%, negative = inhibition) at 1uM": -2.31}
{"smiles": "CCOC(=O)/C=c1\\s/c(=C(\\C#N)C(=O)NC)n(-c2ccccc2)c1=O", "hERG current change (%, negative = inhibition) at 1uM": 9.88}
{"smiles": "COCCN=C1N[C@@H](c2ccc(Br)cc2)C(C(=O)OC)=C(C)N1Cc1ccccc1", "hERG current change (%, negative = inhibition) at 1uM": -7.8}
{"smiles": "COc1ccc(CCNC(=O)c2cc(S(=O)(=O)N3CCOCC3)cn2C)cc1OC", "hERG current change (%, negative = inhibition) at 1uM": 2.52}
{"smiles": "Nc1c(C(=O)NCC2CCCO2)c2nc3ccccc3nc2n1-c1ccccc1", "note": "(stereo not drawn)", "hERG current change (%, negative = inhibition) at 1uM": 14.8}
{"smiles": "CCOC(=O)c1ccc(NC(=O)CSc2ncccn2)cc1", "hERG current change (%, negative = inhibition) at 1uM": 4.72}
{"smiles": "Cc1c(O)ccc2c(CN3CCN(C/C=C/c4ccccc4)CC3)cc(=O)oc12", "hERG current change (%, negative = inhibition) at 1uM": -36.2}
{"smiles": "Cc1cccc(C(=O)N2CCCC(c3nc(-c4ccc(F)cc4)no3)C2)c1", "note": "(stereo not drawn)", "hERG current change (%, negative = inhibition) at 1uM": 14}
{"smiles": "COc1ccc(CN2CCN(C(=O)Cn3nc(C)n4cccc4c3=O)CC2)c(OC)c1OC", "hERG current change (%, negative = inhibition) at 1uM": 13.6}
{"smiles": "COc1cc(/C=N/n2c(-c3n[nH]c4c3CCC4)n[nH]c2=S)ccc1O", "hERG current change (%, negative = inhibition) at 1uM": 15.9}
{"smiles": "O=C(Cn1c(C(F)(F)F)nc2ccccc21)Nc1ccccc1C(=O)O", "hERG current change (%, negative = inhibition) at 1uM": 9.36}
{"smiles": "Cc1cc(C)c(-c2cc(NC(=O)COC(=O)c3ccc(NC(=O)CC#N)cc3)n(-c3ccccc3)n2)cc1C", "hERG current change (%, negative = inhibition) at 1uM": 6.53}
{"smiles": "Cc1oc2nc(SCC(=O)Nc3ccc(S(N)(=O)=O)cc3)nc(NC(=O)c3ccccc3)c2c1C", "hERG current change (%, negative = inhibition) at 1uM": 3.93}
{"smiles": "Nc1cc(=O)[nH]c(SCCSc2ccccc2)n1", "hERG current change (%, negative = inhibition) at 1uM": 14.5}
{"smiles": "CCOC(=O)c1ccc(NC(=O)CN(C)S(=O)(=O)c2ccc(Br)s2)cc1", "hERG current change (%, negative = inhibition) at 1uM": 13.3}
{"smiles": "C=CCC(NC(=O)c1ccc(C#N)cc1)C(=O)NCCC", "note": "(stereo not drawn)", "hERG current change (%, negative = inhibition) at 1uM": 16.5}
{"smiles": "Cc1ccc(CCNC(=O)C2CCC(=O)N(Cc3cccc(F)c3)C2)cc1", "note": "(stereo not drawn)", "hERG current change (%, negative = inhibition) at 1uM": 11.1}
{"smiles": "COc1ccccc1Nc1nc(-c2sc(NC(=O)c3cccc(Cl)c3)nc2C)cs1", "hERG current change (%, negative = inhibition) at 1uM": 19.1}
{"smiles": "O=C(Nc1cccc(Cl)c1)N1CCSc2cc(Cl)ccc21", "hERG current change (%, negative = inhibition) at 1uM": 5.81}
{"smiles": "NC(=O)c1ccsc1NC(=O)c1cccs1", "hERG current change (%, negative = inhibition) at 1uM": 4.93}
{"smiles": "O=C(CCCc1ccccc1)N=C1SC2CS(=O)(=O)CC2N1c1ccccc1", "note": "(stereo not drawn)", "hERG current change (%, negative = inhibition) at 1uM": 17}
{"smiles": "O=C(O)/C=C/C(=O)N1Cc2cc3ccccc3nc2C1", "hERG current change (%, negative = inhibition) at 1uM": 12.1}
{"smiles": "COC(=O)C1(C)NC(c2ccccc2C)C2C(=O)N(c3ccccc3)C(=O)C21", "note": "(stereo not drawn)", "hERG current change (%, negative = inhibition) at 1uM": 10.2}
{"smiles": "COc1cc(/C=C2/C(=N)N3C(=NC2=O)SN=C3S(C)(=O)=O)ccc1OC(=O)c1ccco1", "hERG current change (%, negative = inhibition) at 1uM": 21.4}
{"smiles": "CCc1ccc(C(CC(=O)O)N2Cc3ccccc3C2=O)cc1", "note": "(stereo not drawn)", "hERG current change (%, negative = inhibition) at 1uM": 19}
{"smiles": "O=C(COC(=O)C1CCN(S(=O)(=O)c2c(Cl)cccc2Cl)CC1)NCc1ccco1", "hERG current change (%, negative = inhibition) at 1uM": 4}
{"smiles": "Cc1ccc(-c2nc(NCCN3CCOCC3)c3ccccc3n2)cc1", "hERG current change (%, negative = inhibition) at 1uM": 5.86}
